Experimental data taken from PubChem BioAssay AID2147 (National Center for Advancing Translational Sciences (NCATS), 2009).
Screen size: about 230,000 compounds; about 3,600 (1.6%) were called active. The inconclusive results got no clear call from the source; some entries with a clear call stand among them for comparison. Calls follow the shape of the dose curve; as a rule, active = well fitted inhibition curve with a large enough effect (not every such curve was filed as active); inconclusive = small, poorly fitted or top-dose-only effect, or another doubt; inactive = no such curve, though single readings can be large or run the other way. Potencies of inconclusive entries are doubtful fits and often do not repeat.

molecular target: Lysine-specific demethylase 4E (Homo sapiens) (UniProt B2RXH2); assay: qHTS Assay for Inhibitors of Human Jumonji Domain Containing 2E (JMJD2E); conditions: JMJD2E catalytic domain, FDH-coupled NADH fluorescence (FDH is formaldehyde dehydrogenase); series mostly up to 57.1 µM
Chain of UniProt B2RXH2 (B2RXH2 whole entry, looked up, the tested form may be a part): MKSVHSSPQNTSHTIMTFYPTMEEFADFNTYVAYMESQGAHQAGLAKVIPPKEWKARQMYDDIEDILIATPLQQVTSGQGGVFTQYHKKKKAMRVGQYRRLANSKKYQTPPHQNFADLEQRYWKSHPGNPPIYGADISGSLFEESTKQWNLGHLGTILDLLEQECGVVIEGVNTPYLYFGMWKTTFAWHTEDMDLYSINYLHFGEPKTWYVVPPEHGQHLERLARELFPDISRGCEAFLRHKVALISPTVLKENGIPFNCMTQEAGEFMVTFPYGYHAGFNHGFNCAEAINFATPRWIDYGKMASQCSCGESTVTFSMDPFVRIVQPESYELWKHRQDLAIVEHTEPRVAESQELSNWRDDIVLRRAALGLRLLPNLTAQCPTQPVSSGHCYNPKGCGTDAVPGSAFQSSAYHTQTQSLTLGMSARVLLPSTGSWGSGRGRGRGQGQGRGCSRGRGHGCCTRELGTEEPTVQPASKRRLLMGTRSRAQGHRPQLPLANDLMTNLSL
Also: nearly all actives have a fitted effect of over 50% in size.
Potency is read from the fitted curve at half-maximal effect; tags tell the direction and shape of the fitted curve.

Question: For `S=C1NC2(CCCC2)Nc2ccccc21`, which Potency is on record?
Answer: inconclusive: 20 µM [inhibitor, partial curve]

Question: For `O=C(CSc1nc2[nH]ncc2c(=O)n1-c1ccccc1)N1CCCCCC1`, which Potency is on record?
Answer: inactive

Question: For `CN(Cc1ccncc1)C1CC(=O)N(c2ccc(Cl)cc2)C1=O` (centres undefined), which Potency is on record?
Answer: inactive

Question: Which Potency does the source give for `CCc1nc(N2CCN(S(C)(=O)=O)CC2)c2c3c(sc2n1)CCCC3` here?
Answer: inconclusive: 11.2 µM [inhibitor, partial curve]

Question: How did the Potency turn out when `CCN(CC)C(=O)COC(=O)c1cc(-c2ccco2)nc2ccccc12` was run?
Answer: inconclusive: 28.2 µM [inhibitor, partial curve]

Question: For `CC(=O)N1c2ccc3ccccc3c2C2C=CCC2C1c1ccc(Br)cc1` (centres undefined), which Potency is on record?
Answer: inconclusive: 35.5 µM [inhibitor, single point]

Question: Which Potency does the source give for `COC(=O)c1ccc(Nc2nc(C)cc(C)n2)cc1` here?
Answer: inconclusive: 35.5 µM [inhibitor, single point]

Question: Which Potency does the source give for `COc1ccc(OC)c2c(C)cc(N3CCN(C(=O)c4ccc(C)cc4)CC3)nc12` here?
Answer: inconclusive: 28.2 µM [inhibitor, partial curve]

Question: With `CCOc1cc2[nH]c(=O)n(CCCC(=O)N(C)Cc3ccccc3)c(=O)c2cc1OCC` as the compound, how does the Potency read?
Answer: inconclusive: 28.2 µM [inhibitor, single point]

Question: How did the Potency turn out when `Cc1ccc(C(=O)N/N=C(\CC(C)C)c2ccccc2)cc1` was run?
Answer: inactive

Question: With `CC(C)c1cc(NC(=O)CCl)on1` as the compound, how does the Potency read?
Answer: inactive

Question: For `Cc1nc(NCc2ccccc2)c2nc(-c3ccccc3)n(C(C)CN(C)C)c2n1` (centres undefined), which Potency is on record?
Answer: inconclusive: 31.6 µM [inhibitor, partial curve]

Question: For `N#CCC(=O)N/N=C/c1coc2ccccc2c1=O`, which Potency is on record?
Answer: inactive

Question: `CCCCc1c(C)[nH]c(=S)[nH]c1=O` was tested. Which Potency did it give?
Answer: inactive

Question: With `CCC(=O)NCCNc1nc2cc(C)c(C)cc2cc1C#N` as the compound, how does the Potency read?
Answer: inconclusive: 7.94 µM [inhibitor, full curve]

Question: `Cn1cccc1Cc1nnc(SCC(=O)NCC2CCCO2)n1C` (centres undefined) was tested. Which Potency did it give?
Answer: inconclusive: 39.8 µM [inhibitor, single point]

Question: For `c1cc(Nc2ncnc3sc4c(c23)CCC4)ccn1`, which Potency is on record?
Answer: inconclusive: 31.6 µM [inhibitor, partial curve]

Question: Which Potency does the source give for `CN(C)/C=C/c1c([N+](=O)[O-])c2ccc(O)cc2n1-c1ccccc1` here?
Answer: inconclusive: 25.1 µM [inhibitor, single point]

Question: Which Potency does the source give for `c1csc(C2Nc3cccc4cccc(c34)N2)c1` here?
Answer: inconclusive: 1.26 µM [inhibitor, partial curve, poor fit]

Question: `CCCn1c(=O)c2c(c3ccccc31)OC(C)C(=O)N2` (centres undefined) was tested. Which Potency did it give?
Answer: inactive

Question: With `CCc1cc2c(N[C@@H](Cc3c[nH]c4ccccc34)C(=O)O)ncnc2s1` as the compound, how does the Potency read?
Answer: inactive

Question: For `CCOC(=O)c1sc(NS(=O)(=O)c2ccccc2)nc1C`, which Potency is on record?
Answer: inactive

Question: For `COc1ccc(C2=NN(C(=O)CN3CCOCC3)C(c3nc4ccccc4[nH]3)C2)cc1` (centres undefined), which Potency is on record?
Answer: inconclusive: 39.8 µM [inhibitor, single point]

Question: Which Potency does the source give for `O=c1c(Cl)c(NCCCO)cnn1-c1nc2ccccc2[nH]1` here?
Answer: inconclusive: 25.1 µM [inhibitor, single point]

Question: For `Cc1ccsc1C(=O)N(c1nc2ccccc2s1)c1c(C)cccc1C`, which Potency is on record?
Answer: inconclusive: 39.8 µM [inhibitor, single point]

Question: Which Potency does the source give for `COC(=O)c1ccc(C(NC(=O)OCc2ccccc2)/C(C)=C/[C@@H](C)C(=O)Nc2ccc(OC)cc2)cc1` (some centres undefined) here?
Answer: inactive

Question: For `COCCNC(=O)CSc1nc2ccc(N3CCOCC3)cc2c(=O)n1CCc1ccccc1`, which Potency is on record?
Answer: inconclusive: 31.6 µM [inhibitor, partial curve]

Question: For `O=C(Cc1ccccc1F)OCC(=O)N1CCN(C(=O)c2ccco2)CC1`, which Potency is on record?
Answer: inactive

Question: `C[C@H]1CC[C@]2(OC1)O[C@@H]1C[C@@H]3[C@@H]4CC[C@H]5C[C@@H](O)CC[C@]5(C)[C@@H]4CC(=O)[C@@]3(C)[C@H]1[C@@H]2C` was tested. Which Potency did it give?
Answer: inactive

Question: Which Potency does the source give for `N#C/C(=C\c1ccco1)C(=O)Nn1cnnc1` here?
Answer: inconclusive: 39.8 µM [inhibitor, single point]

Question: How did the Potency turn out when `C/C(=N/NC(=O)c1cc2ccccc2cc1O)C1C(=O)c2ccccc2C1=O` was run?
Answer: inconclusive: 39.8 µM [inhibitor, single point]

Question: With `COc1ccc(/C=N/Nc2cc(OC)ncn2)cc1` as the compound, how does the Potency read?
Answer: inconclusive: 35.5 µM [inhibitor, single point]

Question: For `CCN1CCN(C(=O)NCc2ccccc2)CC1`, which Potency is on record?
Answer: inconclusive: 25.1 µM [inhibitor, single point]

Question: How did the Potency turn out when `CCc1ccc(NC(=O)CSc2nnc(Cc3cccn3C)n2-c2ccc(F)cc2)cc1` was run?
Answer: inactive

Question: Which Potency does the source give for `O=c1c(-c2ccccc2)nc(-c2ccccc2)cn1O` here?
Answer: inconclusive: 25.1 µM [inhibitor, partial curve]

Question: For `NC(=O)/C(=C/c1ccco1)C(N)=S`, which Potency is on record?
Answer: inactive

Question: For `O=C(c1c(Cl)cccc1Cl)N1CCCCCC1`, which Potency is on record?
Answer: inactive

Question: With `COc1ccc(-c2nn(-c3ccccc3)cc2/C=C/C(=O)N2CCN(c3ccccn3)CC2)cc1` as the compound, how does the Potency read?
Answer: inconclusive: 35.5 µM [inhibitor, single point]

Question: Which Potency does the source give for `Cn1cccc1Cc1nnc(SCC(=O)Nc2cccc(Cl)c2)n1-c1ccc(F)cc1` here?
Answer: inconclusive: 22.4 µM [inhibitor, single point]

Question: Which Potency does the source give for `O=S(=O)(NC1CCCC1)c1ccccc1Cl` here?
Answer: inactive

Question: `O=S(=O)(c1ccccc1F)N(Cc1ccco1)Cc1nnc(-c2ccccc2Br)o1` was tested. Which Potency did it give?
Answer: inactive

Question: For `O=C(Cn1cc(C(F)(F)F)ccc1=O)Nc1ccc(N2CCOCC2)cc1`, which Potency is on record?
Answer: inactive

Question: How did the Potency turn out when `CC(=O)C1=C(C)NC(SCC(=O)Nc2nc3ccccc3s2)=C(C#N)C1c1ccc(Cl)cc1` (centres undefined) was run?
Answer: inconclusive: 10 µM [inhibitor, partial curve, poor fit]

Question: `O=C(CCl)NNC(=O)c1c(O)c2ccccc2[nH]c1=O` was tested. Which Potency did it give?
Answer: inconclusive: 28.2 µM [inhibitor, single point]

Question: Which Potency does the source give for `CC(C)(C)N=C1NN=C(c2ccc(Cl)cc2)CS1` here?
Answer: inactive

Question: With `COc1ccc2nc(NC(=O)Cn3cnc4ccccc4c3=O)sc2c1` as the compound, how does the Potency read?
Answer: inconclusive: 39.8 µM [inhibitor, single point]

Question: For `CCOC(=O)c1c(NC(=O)Nc2ccc(F)cc2)sc2c1CCN(C)C2`, which Potency is on record?
Answer: inconclusive: 35.5 µM [inhibitor, single point]

Question: Which Potency does the source give for `COC(=O)c1ccccc1NC(=S)NC(NC(=O)c1ccco1)C(Cl)(Cl)Cl` (centres undefined) here?
Answer: inconclusive: 31.6 µM [inhibitor, single point]

Question: `CCn1c2ccccc2c2cc(NC(=O)CN(C)CC(=O)Nc3ccc(N4CCOCC4)cc3)ccc21` was tested. Which Potency did it give?
Answer: inconclusive: 31.6 µM [inhibitor, single point]

Question: Which Potency does the source give for `COc1cccc(N=Nc2c(N)[nH]n3c(=O)cc(-c4ccccc4)nc23)c1` here?
Answer: inactive

Question: With `CCSc1nc(N)c2c3c(sc2n1)CN(C)CC3` as the compound, how does the Potency read?
Answer: inconclusive: 28.2 µM [inhibitor, partial curve]

Question: `Cc1ccc(C(=O)COC(=O)CCc2nc3ccccc3[nH]c2=O)cc1C` was tested. Which Potency did it give?
Answer: inconclusive: 39.8 µM [inhibitor, single point]

Question: Which Potency does the source give for `CC(C)CCN1CCN(C2CCN(c3ccc4c(c3)OCO4)CC2)CC1CCO` (centres undefined) here?
Answer: inconclusive: 20 µM [inhibitor, single point]

Question: For `Cc1ccccc1-n1nc(C(=O)O)c(C)c(C#N)c1=O`, which Potency is on record?
Answer: inconclusive: 25.1 µM [inhibitor, single point]

Question: `O=C(Cn1c(=O)oc2cc(S(=O)(=O)N3CCCC3)ccc21)N1CCCC1` was tested. Which Potency did it give?
Answer: inconclusive: 39.8 µM [inhibitor, single point]

Question: Which Potency does the source give for `CC(=O)Nc1sc(N)nc1-c1ccccc1` here?
Answer: inactive

Question: `Clc1cccc(Cl)c1NC1=NCCC1` was tested. Which Potency did it give?
Answer: inactive

Question: Which Potency does the source give for `Cc1ccc(-c2nnc(-c3cc(C)on3)o2)cc1` here?
Answer: inconclusive: 39.8 µM [inhibitor, single point]

Question: `CN(C)CCCNCCCCNC(=O)/C=N/O` was tested. Which Potency did it give?
Answer: inactive

Question: Which Potency does the source give for `CC(c1nccs1)N(C)C(=O)CCc1nnc(-c2ccc(-c3ccccc3)cc2)o1` (centres undefined) here?
Answer: inconclusive: 31.6 µM [inhibitor, single point]

Question: How did the Potency turn out when `Cc1ccc(N2C(=O)Nc3ccccc3C2(O)C(=O)N2CCN(c3ccccn3)CC2)cc1C` (centres undefined) was run?
Answer: inconclusive: 35.5 µM [inhibitor, single point]

Question: Which Potency does the source give for `COc1ccc(CNC(=O)COC(=O)C2CC3C=CC2C3)cc1` (centres undefined) here?
Answer: inactive

Question: `COc1ccc(-c2nc(CS(=O)CC(=O)NC3CCCc4ccccc43)c(C)o2)cc1OC` (centres undefined) was tested. Which Potency did it give?
Answer: inconclusive: 31.6 µM [inhibitor, single point]

Question: For `Cn1c(C(=O)NCCCN2CCCC2=O)cc2c(=O)n(C)c3ccccc3c21`, which Potency is on record?
Answer: inconclusive: 28.2 µM [inhibitor, partial curve]

Question: Which Potency does the source give for `O=C(NCc1nnc2c3ccccc3c(-c3ccccc3)nn12)c1ccc(Cl)cc1` here?
Answer: inactive

Question: How did the Potency turn out when `CC(=O)c1cc2c(cc1NC(=O)CCn1cccc1)OCO2` was run?
Answer: inconclusive: 39.8 µM [inhibitor, single point]

Question: `CCOc1cc(/C=C/C(=O)OCC(=O)NC2CCS(=O)(=O)C2)ccc1OCc1ccccc1` (centres undefined) was tested. Which Potency did it give?
Answer: inconclusive: 31.6 µM [inhibitor, partial curve]

Question: With `CNc1ccc(Br)cc(C(=O)/C=C/c2ccc(OC)cc2)c1=O` as the compound, how does the Potency read?
Answer: active: 25.1 µM

Question: Which Potency does the source give for `COc1cccc(C(=O)Nc2cccc3c2ccc2cccn23)c1` here?
Answer: inconclusive: 31.6 µM [inhibitor, single point]

Question: Which Potency does the source give for `CC(C)C1OC2(C)OC(=N)C1(C#N)C(C#N)(C#N)C2c1ccccc1` (centres undefined) here?
Answer: inconclusive: 35.5 µM [inhibitor, partial curve]

Question: For `COc1cc(C=C2C(=O)c3ccccc3C2=O)cc(OC)c1OC`, which Potency is on record?
Answer: inactive

Question: For `CC(C)(C)C(=O)NC(NC(=S)Nc1sc2c(c1C#N)CCCC2)C(Cl)(Cl)Cl` (centres undefined), which Potency is on record?
Answer: inactive

Question: `CCn1c2ccccc2c2cc(CN3CCN(S(=O)(=O)Cc4ccccc4)CC3)ccc21` was tested. Which Potency did it give?
Answer: inactive

Question: `O=c1cc2c(nn1Cc1cccc(Cl)c1)-c1ccccc1CC2` was tested. Which Potency did it give?
Answer: inconclusive: 39.8 µM [inhibitor, single point]
